For this assay, the system named is pro- and anti-apoptotic genes in macrophages. The experiment in a line: Expression profiling of apoptosis-linked genes (Codelink Mouse Uniset 1 / Affymetrix U74A microarrays). Particulars: 1 μM each, 16 h.

Take `O=S(=O)(c1ccccc1)N(CC(F)(F)F)c1ccc(C(O)(C(F)(F)F)C(F)(F)F)cc1` [T1317]: the “effects on expression of genes with functional annotations linked to apoptosis” value was “relatively modest effects”.
